# Data published in the supplement of paper PMC12632987.
# The full ranking holds about 4,500 sequences; the median of “median log2 fold change of GCK-ALFA target abundance (FLAG IP / Myc IP barcode read proportion)” is about 0.078, and the lowest 2% start at about -0.6. This is one part of the list.
# B1: GBRAP_52_6338 (protein)
# chain: MEEEIRKAAEEIADAVVAGDLDRAVELTREVAEKLSLEEVRKVALLTAELIAERLPDREDLAAEAIFRIADVIEEVLGDEELADEVEAHMARLLYERRLA
# B2: GBRAP_160_4450 (protein)
# chain: MKTKEELIKEVEEVRERTIELIEGESHENRVVIVEGEFGELLMELAEDERVSDELEDKVAEIIDELVDTLKANPDLSLEEIKELIEEAAEKIKEAIEKEL
# B3: GBRAP_9_7147 (protein)
# chain: LEELIEKMKEVFEDMVELVREIVPEEVKPVVDKMREEAEKEFEEIKKDKSITKEEAVEKAKKLVEKFTEAVKAEVDPETARMVEAVGLTALLEIEELKEK
# B4: GBRAP_128_3181 (protein)
# chain: SIEEVKKRTREAMEKIKNSSPEEAREIAEELFEWLKTLSLEEAEAAIETMEELLPELSPEHLEIIADVAREHRPTFTPEKAELVAGLEVEALNLLEEKEE
# B5: GBRAP_128_3199 (protein)
# chain: MSEEALAELRALADEVIATKTDAAIARFAAAVREALEAGRIDLDALEEIVEYLGKHLDADTLARVEDALREALADVGPEYLATASGALGEAIMEKEEEEE
# B6: GBRAP_52_5914 (protein)
# chain: MEEEIRKKVLEIIELIKEGKEEEAKKLAKELVEKYNEEELLILIEVLVELVLESPVEELEYWWKAAELIAEALEEAGKDEALADELLARTAAAMYERLQR
# B7: GBRAP_64_6489 (protein)
# chain: MEEIEESLEELLKLVEELLEAVKDLSEELQKKVEEVKRLVEEAKTASLEERLDLTVEAAKLLNEILKNPELTEEQKELAGLALDKASELAWLLFEAEEEE
# B8: GBRAP_52_6348 (protein)
# chain: MEERLRRLAEELVELVLAGRLEEARALAREIVATLSDEELRGLFRVLAEMAKEADPERAEAILEAAEILADEMIAAGRDEYEASGYLADVGKAVYENLQK
# B9: GBRAP_9_7161 (protein)
# chain: MKELIEKMKEIVKEAFEEIKKVVPEEKKPIVDKEKAEVEKKLEELAKDPSITKEEATEKTIELLKEATAVIKAKVTPEIAKMVEAIVLTAELEIEEEAEK
# B10: GBRAP_11_2732 (protein)
# chain: KKEKLEEIRELAERLAELLQRLIEEGPEDEELRREAEEQLRKLEELVKEYGDEDLKKLVEIIREEWERAQEDPETAVEHLRNALAAARVLAGQVLLEIEE
# B11: GBRAP_26_5500 (protein)
# chain: MEAAIDAARERLHAAADALLPPEKAALFKAEVDTAVLELEEELEKNKDNLEAQYAAIDKFAAELAEALDALGVPADVAAALRAEVKAVAAELKAALEKSR
# B12: GBRAP_184_5335 (protein)
# chain: STLEVTIENKSKEEILKEAKKAAKEAAKAGKNLLIHLFLEGKSSEEIAEIVEEIGKIAKEEGIKNLTIGIDQAVDEETADKLIEIADKYGINLTLALEDE
# B13: GBRAP_26_5476 (protein)
# chain: SEEIVRKALAEIAALLAELPDPELAAAALAEATTIIVEAAEEMEKNKDNPEKLKKIVEDAVKELREELERLGVPEEVRERVVKAAREGLEELAKEILKKS
# B14: GBRAP_39_5706 (protein)
# chain: SKEEEAEDTFSYYEARGAKDAVERGWDDEEVVKKTEELAEEIIKRYPELKPLVEEALKLAKEKGIVAVLALYGVLLDAKEGLPVEELREKLELLIAYLKS
# B15: GBRAP_128_3405 (protein)
# chain: MDEAKVAKAKALIDAILEADKEEAKKLAAELEKLLLEADVETVAAVVEYIETKADQFNEEQLAILMDAFHNVAKNSDPEKAELAVEAIGILGEKLYELEE
# B16: GBRAP_11_2767 (protein)
# chain: KKEKLKEAKKLAEELAKLLKELIEKGVDDEELLKEAEKKLKELEKLVKEYGDEDMKKLAKIMKELWEKLKKDPENAEKYAKELLAAAEVLAGQFELEIDE
# B17: GBRAP_9_7179 (protein)
# chain: EEEAKKKILEVFREEGEEAIELAPEEKRPLVEELIEKALKKLEEAAKDPSKSLEELLELLEKLADEIVEELRKHLPEEVYRRIEAELGTAILEAEEIIEE
# B18: GBRAP_11_2861 (protein)
# chain: KKEKLEEMKKLAEELIKLLEKLIEEGVTNEELLKEAEKLLEELLKLAKELGDKSLVKLAEIALEELEKAKENPETALEHVQNALAAMRVLLGQILLLIDE
# B19: GBRAP_122_2957 (protein)
# chain: SKEELIEKMVKETLERAEKGDPAQALLDALKEAAEKLDAESLIELAERLKEEMLKRGWEADALRAYAAAAVWLHENKPELEEAADHLLDLALELEDRLEE
# B20: GBRAP_184_5133 (protein)
# chain: TVLHRAVRATTAEALIAAARAAVDEAAAAGAELVLSVFAEGLSVEEKIAVIRELGALKAAHPQIKAIIVELDEVSEEDMDRLIAAADEAGVKLVIAIPDE
# B21: GBRAP_160_4570 (protein)
# chain: SEEHKELIKEIEEITEEAIEFIKGENYENRLNIVKVAAGEILLLLDENPEVSEETLEKADEIFDELIEEIESNPELTEEEIQKLLREAVEEIKKLIEKES
# B22: GBRAP_128_3358 (protein)
# chain: LDEEKLKEIKELWEQMVNSDVETTYELAKELFKKMSKMSKEEKEAAVEIALEYLPKLTAEKLEAVADAIREMWPLFDPFTKELMAELEVDALNLAEEKEE
# B23: GBRAP_9_7172 (protein)
# chain: LKAAAAAAIAELREARDFILEIAPEAAAGAVDAAFDALIAALEAARADPTVTPEQFEATLAAGFAAIRAAAAAHLSPEVAAAVETEMLTVRDIADEKLDE
# B24: GBRAP_52_6203 (protein)
# chain: MRERMRRLAEEIVELVKAGRREEARALAREVAETLDDEELRLLIEEFARLAREARPEDFDAVFEAAEIFEDVLLELGRDEALADDVLNEVAAALYERELA
# B25: GBRAP_160_4477 (protein)
# chain: MEKVKKTVEDLVKDVLETLEENADLPVKDLLLAVQVTVGSNLMEAVENGTLSDEQEDIVIKAMDEIEELMKESKDMSVEEAKERAKEIIEKMAKEILEAA
# B26: GBRAP_39_5707 (protein)
# chain: EEEEEAEEAFSYYEARGAKYQVERGLTLEEARAEARRLAEELVARHPELAELVRRALELAEAAGDLAILALLGALTAAEEGLPLEELRERLELLIRHLES
# B27: GBRAP_43_5755 (protein)
# chain: MEELLEGFLELLKLLTEDPSVTEEQLLAYLKEGFDMLADEGIVLEKEFLAAVEAASKRLSKEQLEEALAHAEKIAKENPKVKATFEKAAKILKAAIAKKK
# B28: GBRAP_106_2559 (protein)
# chain: ARREKVEAILAETEARLRAELARTEAIIAANADRLTPEEKRAMRNYTVKASFAEGLRRLQKEVGLSDADARAILDKVLAHIDAPLEEQIAVFREAVLAVV
# B29: GBRAP_106_2555 (protein)
# chain: SEEEKFEKLIKESREEAEKEIADTRAWLAARRDQLTPEEIRAIETYTKKYLVAKILHKAIEAGFITKEEAEEILKEALSKTDFTPEEAVKFTLEKIKELY
# Target: GABARAP, O95166
# Assay: median log2 fold change of GCK-ALFA target abundance (FLAG IP / Myc IP barcode read proportion) (log2 ratio); each designed protein is fused to an ALFA-tag nanobody in HEK293 cells to bring the named protein to FLAG-tagged glucokinase (GCK); Myc marks an untargeted standard; higher = target protein stabilised (more abundant)
# Conditions: target protein: 3xFLAG-MCP-GCK-ALFA reporter; HEK293 landing pad (RPLP)
# Summary of the method: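 An ALFA-nanobody-fused binder library was recombined into HEK293 landing-pad cells and induced with 2 μg mL^−1 doxycycline. Cells were transfected with a plasmid expressing a FLAG-tagged target and a Myc-tagged standard. After 48 h, lysates underwent anti-FLAG and anti-Myc immunoprecipitation, and circular RNA barcodes were reverse transcribed, amplified and sequenced. Target abundance is the per-binder median log2 ratio of FLAG to Myc barcode read proportions. Barcodes needed ≥10^−7 proportion in both replicates, binders ≥3 barcodes per replicate, and a 10^−6 pseudocount was added; the two replicates were pooled.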
# Sequence of GABARAP, O95166 (O95166 whole entry, the tested form may be a part): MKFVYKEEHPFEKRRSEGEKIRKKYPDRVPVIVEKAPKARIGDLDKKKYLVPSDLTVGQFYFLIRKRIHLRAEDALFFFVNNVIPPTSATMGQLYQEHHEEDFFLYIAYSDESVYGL
row,Binder,median log2 fold change
1,B1,-0.249
2,B2,0.121
3,B3,0.0519
4,B4,0.301
5,B5,0.224
6,B6,-0.0875
7,B7,0.0238
8,B8,0.199
9,B9,0.0978
10,B10,0.303
11,B11,0.269
12,B12,0.137
13,B13,0.114
14,B14,0.184
15,B15,0.171
16,B16,0.328
17,B17,0.191
18,B18,0.292
19,B19,-0.0878
20,B20,0.104
21,B21,-0.128
22,B22,0.0777
23,B23,-0.00921
24,B24,-0.0514
25,B25,-0.0383
26,B26,0.333
27,B27,0.0117
28,B28,0.075
29,B29,-0.507
